Experimental data: PubChem BioAssay (NCATS)
Inconclusive means that the source gave no clear call. Such entries were picked first, then a sample of the others. For some of these results: Where the call is inconclusive, the potency comes from a doubtful curve fit. The source made the active and inactive calls. Calls follow the shape of the dose curve; as a rule, active = well fitted curve in the direction sought with a large enough effect; inconclusive = small, poorly fitted or top-dose-only effect, or another doubt; inactive = no such curve, though single readings can be large; an effect the other way counts as inactive or inconclusive.

Tests used:
MKL-1 = test: qHTS assay to identify novel small-molecules to repurpose for Merkel cell carcinoma treatment (AID 1296009); details: MCC and control cell lines, CellTiter-Glo viability, 72 h; activity change, negative = cytotoxicity: at 46 µM (top of the series); also: nearly all actives have a fitted effect of over 60% in size
Outline: (§1)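 After compound transfer in DMSO, plates were kept 72 hr at 37 degree celsius. Luminescent ATP signal from CellTiter-Glo served as viability measure, normalized against DMSO and no-cell controls.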

WaGa = test: as above; details: MCC and control cell lines, CellTiter-Glo viability, 72 h; series mostly up to 46 µM
Outline: as §1

MKL-2 = test: as above; details: MCC and control cell lines, CellTiter-Glo viability, 72 h; activity change, negative = cytotoxicity: at 46 µM (top of the series)
Outline: as §1

UISO = test: as above; details: MCC and control cell lines, CellTiter-Glo viability, 72 h; series mostly up to 46 µM
Outline: as §1

C33A = test: Primary qHTS to identify gynecologic anti-cancer compounds using libraries of approved drugs and bioactive compounds (AID 1345084); details: Gynecologic cancer cell panel viability, ATPlite luminescence, 48 h; series mostly up to 57.5 µM; also: nearly all actives have a fitted effect of over 55% in size
Outline: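 Five-point cytotoxicity, 48 h drug exposure at 37 C, 5% CO2, on cells seeded 16 h beforehand. ATP content read by ATPlite luminescence.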
Potency is read from the fitted curve at half-maximal effect; tags tell the direction and shape of the fitted curve.

Which results are given for `CN(C)CCOc1cc(-c2cn[nH]c2)ccc1NC(=O)C1COc2ccccc2O1` (stereo unspecified)?
Potency (MKL-1): inconclusive: 16.6 µM [inhibitor, partial curve]; Potency (WaGa): inconclusive: 4.18 µM [inhibitor, full curve]

With `Cc1cn([C@H]2C=C[C@@H](CO)O2)c(=O)[nH]c1=O` as the compound, how does the Potency (MKL-2) read?
Its Potency is “inactive”.

How did the Potency (MKL-1) turn out when `CNC(=O)c1cc(Oc2ccc(NC(=O)Nc3ccc(Cl)c(C(F)(F)F)c3)c(F)c2)ccn1` was run?
Its Potency is inconclusive: 29.6 µM [inhibitor, single point].

And the Potency (UISO)?
Its Potency is active: 5.9 µM.

And the Potency (WaGa)?
Its Potency is active: 18.7 µM.

And the Potency (C33A)?
The Potency was inconclusive: 39.8 µM [cytotoxic, single point].

Which results are given for `Cc1c(C)n(Cc2ccc(-c3ccccc3C(=O)O)cc2)c2ccc(C(=O)N[C@@H](C)c3ccc([N+](=O)[O-])cc3)cc12`?
Potency (MKL-1): active: 0.372 µM; Potency (UISO): inconclusive: 29.6 µM [inhibitor, single point]

`CN1C(=O)C[C@H](C(=O)N[C@@H](Cc2cnc[nH]2)C(=O)N2CCC[C@@H]2C(N)=O)NC1=O` was tested. Which Potency (MKL-1) did it give?
Its Potency is inconclusive: 26.4 µM [inhibitor, single point].

What about the Potency (UISO) of the same compound?
Its Potency is inconclusive: 26.4 µM [inhibitor, single point].

And the Potency (WaGa)?
Its Potency is active: 20.9 µM.

Which results are given for `CCC(=O)O[C@]1(C(=O)CO)CC[C@H]2[C@@H]3CCC4=CC(=O)CC[C@]4(C)[C@@H]3CC[C@@]21C`?
Potency (MKL-1): inactive; Potency (WaGa): inactive

Which Potency (MKL-1) does the source give for `CC(C)OC(=O)C(C(=O)OC(C)C)=C1SC=CS1` here?
Its Potency is “inactive”.

What about the Potency (WaGa) of the same compound?
The Potency was inconclusive: 33.5 µM [inhibitor, partial curve, poor fit].
